Screen size: about 1,900 compounds; about 40 (2%) showed an effect of 50% or more. The list shows a part of the results. Residues, ends and D or L forms follow the SMILES beside them.

Sequence of human SGLT1 (hSGLT1) (P13866 whole entry, looked up): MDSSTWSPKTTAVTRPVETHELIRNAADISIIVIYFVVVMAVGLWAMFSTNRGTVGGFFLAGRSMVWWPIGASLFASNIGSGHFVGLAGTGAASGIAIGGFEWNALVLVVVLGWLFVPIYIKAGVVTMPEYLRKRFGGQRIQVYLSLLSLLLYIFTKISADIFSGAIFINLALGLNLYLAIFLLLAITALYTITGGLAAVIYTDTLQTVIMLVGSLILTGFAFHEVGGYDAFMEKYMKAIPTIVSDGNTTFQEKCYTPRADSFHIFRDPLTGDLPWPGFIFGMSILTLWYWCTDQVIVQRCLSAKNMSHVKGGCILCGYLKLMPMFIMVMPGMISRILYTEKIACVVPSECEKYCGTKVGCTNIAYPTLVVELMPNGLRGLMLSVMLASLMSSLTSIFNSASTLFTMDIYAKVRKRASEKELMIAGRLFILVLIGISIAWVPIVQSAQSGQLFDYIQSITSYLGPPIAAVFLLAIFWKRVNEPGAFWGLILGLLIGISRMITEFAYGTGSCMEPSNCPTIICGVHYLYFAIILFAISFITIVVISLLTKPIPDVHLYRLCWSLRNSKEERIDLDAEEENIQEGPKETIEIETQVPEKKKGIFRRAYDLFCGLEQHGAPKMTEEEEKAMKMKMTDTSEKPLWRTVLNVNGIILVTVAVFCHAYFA

The assay addresses human SGLT1 (hSGLT1) (human, UniProt P13866). Description: primary screen, percent of control activity; higher = less effect of the substance. As to conditions: 50 µM. On the set-up: single well. The essentials:
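Single-point screen at 50 µmol/L in CHO-hSGLT1 cells, with 160 µmol/L 1-NBD-glucose in glucose-free DMEM for 90 min at 37°C. Fluorescence from isopropanol extracts was calibrated, and CHO wild-type uptake was subtracted. Data are percent of uptake without compound.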
In the case of `CC(=O)Oc1ccc(Cl)c2cccnc12`, the “NORMALIZED SGLT1 ACTIVITY (%)” value is 202%.
In the case of `OC(Cn1cncn1)(Cn1cncn1)c1ccc(F)cc1F`, the “NORMALIZED SGLT1 ACTIVITY (%)” value was 113%.
As to `CC(=O)Oc1ccc(-c2cc(=O)c3c(OC(C)=O)cc(OC(C)=O)cc3o2)cc1`, the “NORMALIZED SGLT1 ACTIVITY (%)” value is reported as 128%.
The value for `C#CCOS(=O)OC1CCCCC1Oc1ccc(C(C)(C)C)cc1` (centres unmarked) was 108%.
The value for `COC(=O)CC1C(C)(C)C(OC(C)=O)[C@@H]2[C@@H](OC(C)=O)[C@]34O[C@@]2(O)[C@]1(C)C3CC[C@]1(C)C4=CC(=O)O[C@H]1c1ccoc1` (some centres unmarked) was 94%; that for `O=C(OCC(O)CO)c1ccccc1Nc1ccnc2cc(Cl)ccc12` (centres unmarked) was 248%.
With `CC(=O)S[C@@H]1CC2=CC(=O)CC[C@]2(C)[C@H]2CC[C@@]3(C)[C@@H](CC[C@@]34CCC(=O)O4)[C@H]12` the figure was 107%.
Consider `CCOC(=O)CCCCCCCCCCCCC1C=CCC1` (centres unmarked), for which the “NORMALIZED SGLT1 ACTIVITY (%)” value amounted to 127%.
The value for `CC(C)CCCC1(C)C=Cc2c(O)c3c(c(CCC(C)C)c2O1)OC12C(CC4CC1C(C)(C)OC2(CCC(C)C(=O)O)C4O)C3=O` (centres unmarked) was 111%; that for `C/C=C1\[C@H]2C=C(C)C[C@]1(N)c1ccc(=O)[nH]c1C2` was 109%; that for `COc1cc2c(cc1OC)[C@@H]1C(=O)c3ccc4c(c3O[C@@H]1CO2)CC(C(C)C)O4` (some centres unmarked) was 81%.
In the case of `Oc1ccc(Cl)cc1`, the “NORMALIZED SGLT1 ACTIVITY (%)” value is recorded as 111%.
With `Br.CC(N)Cc1ccc(O)cc1` (centres unmarked) the figure was 117%.
With `CC(=O)O.NCCCCC(N)C(=O)NC(Cc1ccc(O)cc1)C(=O)NC(CCCCN)C(=O)O` (stereo not drawn) (H-Lys-Tyr-Lys-OH; configuration not given here) the figure was 179%.
The value for `CCC(C(N)=O)c1ccccc1` (centres unmarked) was 79%; that for `CCCCN(CCCC)CCCOC(=O)c1ccc(N)cc1` was 52%.
In the case of `CNC[C@@H](O)c1ccc(O)c(O)c1.O=C(O)C(O)C(O)C(=O)O`, the “NORMALIZED SGLT1 ACTIVITY (%)” value stood at 105%.
With `Cc1ccc(N(CC2=NCCN2)c2cccc(O)c2)cc1.Cl` the figure was 62%; with `CC(=O)OCC(=O)[C@@]1(O)CC[C@H]2[C@@H]3CCC4=CC(=O)CC[C@]4(C)[C@@]3(F)[C@@H](O)C[C@@]21C`, 124%.
The value for `CN1CCN(C(c2ccccc2)c2ccccc2)CC1` was 87%.
The value for `Cc1cc(C(C)(C)C)c(O)c(C)c1CC1=NCCN1.Cl` was 81%; that for `CC(=O)[C@@]1(O)CC[C@H]2[C@@H]3C=C(Cl)C4=CC(=O)[C@@H]5C[C@@H]5[C@]4(C)[C@H]3CC[C@@]21C` was 183%.
Take `CC[C@@H](C(=O)C(C)[C@@H](O)[C@H](C)CCc1ccc(C)c(O)c1C(=O)[O-])C1OC(CC)(C2CC[C@](O)(CC)[C@H](C)O2)C[C@@H]1C.[Na+]` (some centres unmarked): the “NORMALIZED SGLT1 ACTIVITY (%)” value came to 125%.
The value for `Oc1ccc(Cl)cc1Cc1cc(Cl)ccc1O` was 590%; that for `CC(=O)O[C@@H]1CC2C(C)(C)C(=O)C=C[C@]2(C)C2CC[C@]3(C)C(=CC(=O)O[C@H]3c3ccoc3)[C@@]21C` (some centres unmarked) was 215%; that for `NC(=O)CN1CCCC1=O` was 141%.
The value for `COc1ccc2c(c1)CCC1C2CCC2(C)C1C[C@@H](O)C2O` (some centres unmarked) was 100%; that for `C#CCCCCCCCCCCCC(O)CC(O)CO` (centres unmarked) was 152%; that for `CCOC(=O)CCC(=O)O[C@H]1[C@H](O[C@@H]2[C@@H](C)[C@H](O[C@H]3C[C@@](C)(OC)[C@@H](O)[C@H](C)O3)[C@@H](C)C(=O)O[C@H](CC)[C@@](C)(O)[C@H](O)[C@@H](C)C(=O)[C@H](C)C[C@@]2(C)O)O[C@H](C)C[C@@H]1N(C)C` was 115%.
The value for `CC(C)(C)NC[C@H](O)c1ccc(O)c(CO)c1.Cl` was 155%; that for `COc1ccc(-c2coc3cc(OC)cc(OC)c3c2=O)cc1` was 150%.
Take `Cc1cc(C(C)(C)C)cc(C)c1CC1=NCCN1.Cl`: the “NORMALIZED SGLT1 ACTIVITY (%)” value turned out to be 79%.
Regarding `COc1cc2occc2c2oc(=O)ccc12`, the “NORMALIZED SGLT1 ACTIVITY (%)” value is reported as 146%.
As for `C=Cc1c(C)c2[n]3c1C=c1c(C)c(CC)c4[n]1[Cu]31[n]3c(c(C)c5c3C(=c3c(CCC(=O)[O-])c(C)c([n]31)=C2)C(C(=O)[O-])C5=O)C=4.[Na+].[Na+]` (centres unmarked), the “NORMALIZED SGLT1 ACTIVITY (%)” value is 94%.
The value for `CCCCC(=O)Oc1ccccc1C(=O)O` was 102%.
With `C/C=C(\C)C(=O)O[C@@H]1c2c(ccc3ccc(=O)oc23)OC(C)(C)[C@@H]1OC(C)=O` the figure was 5%; with `Cl.O=C(O)C1=CCCNC1`, 133%; with `C/C=C/c1ccc2c(c1)OCO2`, 187%.
Consider `O=C(O)/C=C\C(=O)O.c1ccc2nc(N3CCNCC3)ccc2c1`, for which the “NORMALIZED SGLT1 ACTIVITY (%)” value was determined as 116%.
With `CN(C)C(=S)SSC(=S)N(C)C` the figure was 98%; with `CC(=O)Oc1cc(-c2coc3cc(OC(C)=O)c(OC(C)=O)c(OC(C)=O)c3c2=O)cc(OC(C)=O)c1OC(C)=O`, 98%; with `NC(=O)c1ncn([C@@H]2O[C@H](CO)[C@@H](O)[C@H]2O)c1O`, 84%.
The value for `CC(=O)O[C@H]1CC[C@]2(C)C3CC(=O)[C@]4(C)C(C(C)=O)=CCC4C3CC[C@H]2C1` (some centres unmarked) was 269%; that for `CC(=O)N1CCN(c2ccc(OCC3CO[C@](Cn4ccnc4)(c4ccc(Cl)cc4Cl)O3)cc2)CC1` (some centres unmarked) was 162%; that for `O=C1NC(=O)C(=O)C(=O)N1` was 99%.
The value for `CCCc1nn(C)c2c(=O)[nH]c(-c3cc(S(=O)(=O)N4CCN(C)CC4)ccc3OCC)nc12.O=C(O)CC(O)(CC(=O)O)C(=O)O` was 242%; that for `COP(=O)(NC(C)=O)SC` (centres unmarked) was 177%; that for `CC(C)(O)CC[C@@H](O)[C@](C)(O)[C@H]1CC[C@@]2(O)C3=CC(=O)[C@@H]4C[C@@H](O)[C@@H](O)C[C@]4(C)[C@H]3CC[C@]12C` was 100%.
For the compound `CC(=O)NC(C(=O)O)C(C)(C)SN=O` (centres unmarked), the “NORMALIZED SGLT1 ACTIVITY (%)” value came to 111%.
With `C=C1CCC2C(CC2(C)C)C(=O)CCC1O` (centres unmarked) the figure was 130%; with `O=c1c(-c2ccc(O)cc2)coc2cc(O)cc(O)c12`, 529%.
With `CC(=O)N[C@@H](CC(C)C)C(=O)O` the figure was 98%; with `CC(=O)O[C@@H]1CC2C(C)(C)[C@@H](O)CC[C@]2(C)C2CC[C@@]3(C)[C@H](c4ccoc4)OC(=O)[C@H]4O[C@]43[C@@]21C` (some centres unmarked), 283%; with `C[C@H]1C(=O)O[C@@H]2CCN3CC=C(COC(=O)[C@](C)(O)[C@]1(C)O)[C@H]23`, 104%.
Take `Oc1ccc(O)cc1`: the “NORMALIZED SGLT1 ACTIVITY (%)” value came out at 118%.
With `O=C(O)COc1cc(Cl)c(Cl)cc1Cl` the figure was 130%.

For the origin of these results see paper PMC6664820, “Novel natural and synthetic inhibitors of solute carriers SGLT1 and SGLT2” (Pharmacology Research & Perspectives, 2019).
